Source: the supplement of paper PMC4604168 (melanoma cell lines)
The other results are listed elsewhere or left out. Most values come without repeats; read them as rough.

Columns and labels:
Assay in all cases: cell count relative to DMSO control; melanoma cells; higher = more viable cells
Conditions in all cases: library dose: standard library concentration; 72 h
A101D = test system: A101D
A2058 = test system: A2058
A375 = test system: A375
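Further: cells treated in 1,536-well plates, then fixed and DAPI-stained, with nuclei counted from automated high-throughput microscope images.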

Structure (SMILES) | cell count (A101D) [%] | cell count (A2058) [%] | cell count (A375) [%]
CN1CCN(c2ccc3nc(-c4c(N)c5c(F)cccc5[nH]c4=O)[nH]c3c2)CC1 [Dovitinib] + Nc1cccc2c1CN(C1CCC(=O)NC1=O)C2=O [lenalidomide] (first compound 0.5 µM, partner dose 5 µM) | 85.4 | 30.5 | 56
CNC(=O)c1cc(Oc2ccc(NC(=O)Nc3ccc(Cl)c(C(F)(F)F)c3)cc2)ccn1 [sorafenib] + COc1cc2c(Oc3ccc4[nH]c(C)cc4c3F)ncnc2cc1OCCCN1CCCC1 [cediranib] (first compound 2 µM, partner dose 2 µM) | 82.1 | 89.3 | 127
C=CCNC1=C2C[C@@H](C)C[C@H](OC)[C@H](O)[C@@H](C)/C=C(\C)[C@H](OC(N)=O)[C@@H](OC)/C=C\C=C(/C)C(=O)NC(=CC1=O)C2=O [Tanespimycin] + CC(=O)c1c(C)c2cnc(Nc3ccc(N4CCNCC4)cn3)nc2n(C2CCCC2)c1=O [palbociclib] (first compound 0.01 µM, partner dose 0.2 µM) | 62.3 | 78 | 65.5
CN1CCN(c2ccc3nc(-c4c(N)c5c(F)cccc5[nH]c4=O)[nH]c3c2)CC1 [Dovitinib] + COc1cc2c(Oc3ccc4[nH]c(C)cc4c3F)ncnc2cc1OCCCN1CCCC1 [cediranib] (first compound 0.5 µM, partner dose 2 µM) | 60.8 | 29.9 | 74.5
C[C@@H](Oc1cc(-c2cnn(C3CCNCC3)c2)cnc1N)c1c(Cl)ccc(F)c1Cl [Crizotinib] + CN(NC(=O)CC(=O)NN(C)C(=S)c1ccccc1)C(=S)c1ccccc1 [STA4783] (first compound 1 µM, partner dose 0.03 µM) | 66.9 | 25.2 | 99.6
C[C@@H](Oc1cc(-c2cnn(C3CCNCC3)c2)cnc1N)c1c(Cl)ccc(F)c1Cl [Crizotinib] + C=C(c1ccc(C(=O)O)cc1)c1cc2c(cc1C)C(C)(C)CCC2(C)C [Bexarotene] (first compound 1 µM, partner dose 10 µM) | 92.3 | 75.2 | 136
CS(=O)(=O)CCNCc1ccc(-c2ccc3ncnc(Nc4ccc(OCc5cccc(F)c5)c(Cl)c4)c3c2)o1 [lapatinib] + O=C(CCCCCCC(=O)Nc1ccccc1)NO [vorinostat] (first compound 4 µM, partner dose 0.4 µM) | 47.6 | 98.1 | 114
CN1CCN(c2ccc3nc(-c4c(N)c5c(F)cccc5[nH]c4=O)[nH]c3c2)CC1 [Dovitinib] + Cc1nc(Nc2ncc(C(=O)Nc3c(C)cccc3Cl)s2)cc(N2CCN(CCO)CC2)n1 [dasatanib] (first compound 0.5 µM, partner dose 0.02 µM) | 49.7 | 28.4 | 71.6
C=CCNC1=C2C[C@@H](C)C[C@H](OC)[C@H](O)[C@@H](C)/C=C(\C)[C@H](OC(N)=O)[C@@H](OC)/C=C\C=C(/C)C(=O)NC(=CC1=O)C2=O [Tanespimycin] + CN(NC(=O)CC(=O)NN(C)C(=S)c1ccccc1)C(=S)c1ccccc1 [STA4783] (first compound 0.01 µM, partner dose 0.03 µM) | 53.6 | 16.3 | 101
CS(=O)(=O)CCNCc1ccc(-c2ccc3ncnc(Nc4ccc(OCc5cccc(F)c5)c(Cl)c4)c3c2)o1 [lapatinib] + C=C(c1ccc(C(=O)O)cc1)c1cc2c(cc1C)C(C)(C)CCC2(C)C [Bexarotene] (first compound 4 µM, partner dose 10 µM) | 73.3 | 92 | 123
CNC(=O)c1cc(Oc2ccc(NC(=O)Nc3ccc(Cl)c(C(F)(F)F)c3)cc2)ccn1 [sorafenib] + CC1(C)NC(=O)N(c2ccc([N+](=O)[O-])c(C(F)(F)F)c2)C1=O [nilutamide] (first compound 2 µM, partner dose 5 µM) | 99.5 | 129 | 114
CS(=O)(=O)CCNCc1ccc(-c2ccc3ncnc(Nc4ccc(OCc5cccc(F)c5)c(Cl)c4)c3c2)o1 [lapatinib] + Nc1ncn([C@H]2C[C@H](O)[C@@H](CO)O2)c(=O)n1 [decitabine] (first compound 4 µM, partner dose 0.5 µM) | 73.8 | 78.2 | 147
CN1CCN(c2ccc3nc(-c4c(N)c5c(F)cccc5[nH]c4=O)[nH]c3c2)CC1 [Dovitinib] + C=C(c1ccc(C(=O)O)cc1)c1cc2c(cc1C)C(C)(C)CCC2(C)C [Bexarotene] (first compound 0.5 µM, partner dose 10 µM) | 68.6 | 53 | 76.4
CN1CCN(c2ccc3nc(-c4c(N)c5c(F)cccc5[nH]c4=O)[nH]c3c2)CC1 [Dovitinib] + C#Cc1cccc(Nc2ncnc3cc(OCCOC)c(OCCOC)cc23)c1 [erlotinib] (first compound 0.5 µM, partner dose 4 µM) | 76.7 | 25.1 | 57.4
C[C@@H](Oc1cc(-c2cnn(C3CCNCC3)c2)cnc1N)c1c(Cl)ccc(F)c1Cl [Crizotinib] + COCC[n+]1c2c(n(Cc3cnccn3)c1C)C(=O)c1ccccc1C2=O [YM155] (first compound 1 µM, partner dose 0.002 µM) | 53.4 | 19.9 | 63.5
